Assay results as given in PubChem BioAssay AID1768 (National Center for Advancing Translational Sciences (NCATS), 2009).
Where “and” joins values, the source holds several entries; their conditions need not be identical. Equal values may be shown once. About 620 (0.23%) of roughly 270,000 compounds were called active. The inconclusive results got no clear call from the source; some entries with a clear call stand among them for comparison. Calls follow the shape of the dose curve; as a rule, active = well fitted inhibition curve with a large enough effect in the polarisation, with a control signal flat (not every such curve was filed as active); inconclusive = small, poorly fitted or top-dose-only effect, or effect the other way, or a change in a side signal; inactive = no such curve, though single readings can be large or run the other way; the % refers to the polarisation. Potencies of inconclusive entries are doubtful fits and often do not repeat. A note “side channel” means that the fit belongs to a control or component signal, not to the main read-out.

target: Menin (Homo sapiens) (UniProt O00255); test: qHTS Assay for Inhibitors Targeting the Menin-MLL Interaction in MLL Related Leukemias: Competition With Texas Red Labeled MLL-derived Mutant Peptide; conditions: fluorescence polarization; series mostly up to 61.6 µM
Potency is read from the fitted curve at half-maximal effect; tags tell the direction and shape of the fitted curve or compound fluorescence and quenching.

UniProt O00255, sequence (O00255 whole entry, looked up): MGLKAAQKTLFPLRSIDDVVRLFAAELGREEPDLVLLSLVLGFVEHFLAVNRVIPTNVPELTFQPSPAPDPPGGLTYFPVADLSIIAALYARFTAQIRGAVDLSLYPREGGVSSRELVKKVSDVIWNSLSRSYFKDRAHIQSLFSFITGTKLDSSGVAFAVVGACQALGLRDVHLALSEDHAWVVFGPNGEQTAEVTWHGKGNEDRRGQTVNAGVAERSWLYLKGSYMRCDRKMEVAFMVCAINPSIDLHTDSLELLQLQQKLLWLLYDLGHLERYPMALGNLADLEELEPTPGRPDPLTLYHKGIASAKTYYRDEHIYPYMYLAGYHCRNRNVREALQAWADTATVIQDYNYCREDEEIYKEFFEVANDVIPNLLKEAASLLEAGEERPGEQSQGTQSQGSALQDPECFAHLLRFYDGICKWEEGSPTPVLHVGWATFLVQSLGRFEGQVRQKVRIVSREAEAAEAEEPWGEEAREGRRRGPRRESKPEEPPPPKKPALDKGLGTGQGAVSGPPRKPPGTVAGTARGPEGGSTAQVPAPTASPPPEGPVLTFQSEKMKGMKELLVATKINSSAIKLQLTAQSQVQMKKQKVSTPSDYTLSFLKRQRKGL

Compound	Potency
O=c1c2sc(-c3ccccc3)cc2nc2n1CCC2	inactive
COc1ccc(CC(=O)c2c(O)cc(O)cc2O)cc1OC	inconclusive: 8.91 µM [quencher, side channel, partial curve]
CC(C1CC2CCC1C2)n1c(COc2ccccc2F)nnc1SCC(N)=O (stereo not given)	inconclusive: 2.82 µM [fluorescent, side channel, full curve, poor fit]
Cc1nc2ccccc2c(C)c1C(=O)c1ccc(F)cc1	inconclusive: 39.8 µM [inhibitor, single point]
CCc1ccc2c(c1)cc(CN(C(=S)Nc1ccccc1Cl)C1CC1)c1nnnn12	inconclusive: 15.8 µM [inhibitor, single point]
CC(=O)Nc1cccc(Nc2nc(-c3ccccc3F)nc3ccccc23)c1	inconclusive: 14.1 µM [quencher, side channel, partial curve]
CC(=O)c1ccc(NC(=O)Nc2ccc(Cl)cc2)cc1	inconclusive: 20 µM [quencher, side channel, partial curve]
COc1cc2oc3ccccc3c2cc1N(CC(=O)N1CCCCC1)S(=O)(=O)c1ccc(C)cc1	inconclusive: 8.91 µM [inhibitor, partial curve]
COc1ccc2nc(NC(=O)CSc3nc(SC)ns3)sc2c1	inconclusive: 25.1 µM [quencher, side channel, partial curve]
COc1ccc(CN2CCN(C(=O)C3CCC(CNS(=O)(=O)c4ccc(C)cc4)CC3)CC2)c(OC)c1OC (stereo not given)	inconclusive: 5.01 µM [fluorescent, side channel, full curve, poor fit]
CCOC(=O)C1CCN(c2nc3ccccc3nc2C(C#N)C(=O)OCCOC)CC1 (stereo not given)	inconclusive: 10 µM [fluorescent, side channel, partial curve]
Cc1cc(C)c(C(=O)CSc2nc(C)cc(C)c2C(N)=O)c(C)c1	inconclusive: 39.8 µM [inhibitor, single point]
Cc1ccc(S(=O)(=O)Nc2ccc(NC(=O)Nc3ccc(F)cc3F)cc2)cc1	inconclusive: 22.4 µM [quencher, side channel, partial curve]
COC(=O)c1ccc(-c2ccc(/C=N/NC(=O)CC3(C)OCCCO3)o2)cc1	inconclusive: 12.6 µM [inhibitor, single point]
COc1cccc(/C=N/n2c(-c3n[nH]c4c3CCC4)n[nH]c2=S)c1O	inactive
COC(=O)c1ccccc1NC(=O)CN1C(=O)c2ccccc2S1(=O)=O	inconclusive: 17.8 µM [inhibitor, partial curve]
O=C(O)c1cc(-c2ccc(/C=c3\sc4nc5ccc(Br)cc5n4c3=O)o2)ccc1Cl	inconclusive: 12.6 µM [quencher, side channel, partial curve]
CCOC(=O)C1CCN(c2ncnc3c2c(-c2ccccc2)cn3-c2ccc(C)cc2)CC1	inconclusive: 2.51 µM [fluorescent, side channel, full curve]

Compound	Potency
O=C(NNS(=O)(=O)c1cccc(Cl)c1)c1cc(-c2ccc(F)cc2)nc2ccccc12	inconclusive: 15.8 µM [quencher, side channel, partial curve]
O=C(Nc1ccc(Cl)c(Cl)c1)c1ccc2c(c1)OCO2	inconclusive: 11.2 µM [quencher, side channel, partial curve]
Cc1ccc(-c2csc(N(Cc3ccccc3)C(=O)COc3ccccc3)n2)cc1	inconclusive: 8.91 µM [fluorescent, side channel, partial curve]
CCc1ccc(N=c2c([N+](=O)[O-])nn(-c3ccc4c(c3)OCCO4)n2O)cc1	inconclusive: 12.6 µM [quencher, side channel, partial curve]
CCc1ccc(/C(C)=N\Nc2ccc([N+](=O)[O-])cc2)cc1	inconclusive: 12.6 µM [quencher, side channel, partial curve]
Cc1noc(NS(=O)(=O)c2ccc(NC(=O)c3oc4ccc(Cl)cc4c3C)cc2)c1C	inconclusive: 28.2 µM [quencher, side channel, partial curve]
O=c1[nH][nH]c(-c2ccccc2O)c1C(C[N+](=O)[O-])c1cccc(Cl)c1 (stereo not given)	inconclusive: 12.6 µM [quencher, side channel, partial curve]
Cc1[nH][nH]c(=O)c1C(c1ccc(-c2ccc(F)cc2)o1)c1c(C)[nH][nH]c1=O	inconclusive: 39.8 µM [quencher, side channel, single point]
Cc1ccc(-c2nc(C(=O)NCCCN3CCOCC3)cc3c2[nH]c2ccccc23)cc1	inconclusive: 4.47 µM [inhibitor, single point]
Nc1ncnc2c1ncn2C1CCCO1 (stereo not given)	inconclusive: 10 µM [inhibitor, partial curve]
COc1ccc(N2CCN(C(CNC(=O)C3CCCCC3)c3cccnc3)CC2)cc1 (stereo not given)	inconclusive: 20 µM [inhibitor, single point]
CCO[C@@H]1OC(C(=O)N2CCN(Cc3ccccc3)CC2)=C[C@H](c2cn(C(C)=O)c3ccccc23)[C@H]1CCCO	inconclusive: 2 µM [fluorescent, side channel, full curve, poor fit]
CC1(C)Nc2ccc(O)cc2-c2c1ssc2=S	inconclusive: 25.1 µM [quencher, side channel, partial curve]
CCCC(=O)NC(c1ccccc1)c1ccc2cccnc2c1O (stereo not given)	inactive
C=CCC(O)[C@H](Cc1cnc2ccccc2c1)[C@H](/C=C/CCCC)c1ccccc1 (stereo not given in full)	inconclusive: 39.8 µM [fluorescent, side channel, single point]
O=S(=O)(Nc1ccc(-c2csc(-c3ccccc3)n2)cc1)c1ccccc1	inconclusive: 15.8 µM [quencher, side channel, partial curve]
Cc1ccc(C2CC(=O)Oc3cc(O)ccc32)cc1 (stereo not given)	inconclusive: 25.1 µM [fluorescent, side channel, partial curve] and inconclusive: 35.5 µM [fluorescent, side channel, partial curve]
